Screen size: about 310,000 compounds; about 14,000 (4.5%) showed an effect of 50% or more. The effect is printed as a negative number. The list shows a part of the results.
Each compound was assayed against human ether-à-go-go-related gene (hERG) potassium channel (human, UniProt Q12809) (assay: primary screen, population patch clamp on CHO cells stably expressing hERG).
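Further: peak tail current of the secondary pulse compared with the same well before compound.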

Chain of human ether-à-go-go-related gene (hERG) potassium channel (Q12809 whole entry, looked up): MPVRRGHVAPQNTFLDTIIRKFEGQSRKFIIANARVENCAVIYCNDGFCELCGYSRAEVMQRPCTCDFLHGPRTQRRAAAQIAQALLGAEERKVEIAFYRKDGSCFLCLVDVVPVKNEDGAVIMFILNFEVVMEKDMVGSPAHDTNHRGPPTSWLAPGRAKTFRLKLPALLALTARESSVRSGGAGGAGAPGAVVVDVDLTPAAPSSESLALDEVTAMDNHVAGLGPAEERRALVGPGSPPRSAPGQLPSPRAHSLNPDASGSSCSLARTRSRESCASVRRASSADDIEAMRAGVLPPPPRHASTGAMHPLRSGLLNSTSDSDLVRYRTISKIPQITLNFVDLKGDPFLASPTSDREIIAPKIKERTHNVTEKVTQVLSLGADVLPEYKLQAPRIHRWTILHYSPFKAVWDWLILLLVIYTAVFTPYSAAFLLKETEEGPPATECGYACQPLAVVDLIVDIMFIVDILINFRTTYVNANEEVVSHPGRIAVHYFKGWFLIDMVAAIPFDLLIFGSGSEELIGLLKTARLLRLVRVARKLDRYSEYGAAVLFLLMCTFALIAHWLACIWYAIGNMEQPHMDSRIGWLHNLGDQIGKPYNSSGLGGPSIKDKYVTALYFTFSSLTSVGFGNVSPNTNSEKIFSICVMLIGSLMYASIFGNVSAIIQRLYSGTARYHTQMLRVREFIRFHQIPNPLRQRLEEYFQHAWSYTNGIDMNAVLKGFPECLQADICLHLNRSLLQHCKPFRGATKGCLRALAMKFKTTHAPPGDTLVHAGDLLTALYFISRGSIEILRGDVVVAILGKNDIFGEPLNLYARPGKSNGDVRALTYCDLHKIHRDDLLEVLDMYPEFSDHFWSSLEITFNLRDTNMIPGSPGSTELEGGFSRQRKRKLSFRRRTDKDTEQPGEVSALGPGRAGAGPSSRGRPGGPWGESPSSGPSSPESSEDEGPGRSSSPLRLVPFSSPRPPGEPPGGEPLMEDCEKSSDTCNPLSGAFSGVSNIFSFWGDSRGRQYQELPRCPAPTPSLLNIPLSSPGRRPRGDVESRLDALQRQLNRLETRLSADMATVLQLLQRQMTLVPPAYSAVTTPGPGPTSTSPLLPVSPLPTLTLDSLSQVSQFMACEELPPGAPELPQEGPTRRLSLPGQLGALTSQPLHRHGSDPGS

| SMILES | hERG current change (%, negative = inhibition) at 10uM |
| --- | --- |
| COc1ccc(-n2nc3c(c2NC(=O)CCCl)CSC3)cc1 | 0.615% |
| O=C(CN1CCN(S(=O)(=O)c2ccccc2[N+](=O)[O-])CC1)Nc1ccc(N2CCOCC2)cc1 | -12.9% |
| CCN1C(=O)/C(=C2/C=CC=CN2C)SC1=S | -35.2% |
| COc1cccc(CN2CCCC(C(=O)c3ccc4c(c3)OCO4)C2)c1O (stereo not shown) | -65.5% |
| COc1cc(C(=O)COC(=O)CNC(=O)C2CCCCC2)cc(OC)c1OC | -0.253% |
| Cc1cc(OCc2cc(C(=O)NC3CCC3)no2)cc(C)c1Cl | 3.82% |
| COc1ccc(/C=C2/SC(=O)N(CC(O)Cn3c4ccccc4c4ccccc43)C2=O)cc1 (stereo not shown) | 4.63% |
| Cc1nn(-c2ccccc2)c(/N=C/c2ccccc2O)c1-c1ccccc1 | -8.85% |
| O=C(Nc1ccn(-c2ccccc2)n1)c1ccccc1Br | -66% |
| Cc1cc(NC(=O)c2ccc(Cl)c(S(=O)(=O)N3CCOCC3)c2)no1 | 3.9% |
| COc1ccc(CC(=O)N2CCN(S(=O)(=O)c3ccc(Cl)s3)CC2)cc1 | -39.7% |
| CNC(=O)COC(=O)c1ccc2c(c1)NC(=O)C1CCCN21 (stereo not shown) | 11.7% |
| O=C(NCCCn1ccnc1)c1cc(-c2ccc3c(c2)OCO3)on1 | -5.96% |
| CC1CCC/C(=C\Nc2ccc3c(c2)OCO3)C1=O (stereo not shown) | -13.5% |
| CN(C(=O)CSc1nnc(-c2c[nH]c3ccccc23)n1C1CC1)C1CCS(=O)(=O)C1 (stereo not shown) | -12.1% |
| O=C(NC1=NCCS1)c1nc(-c2ccccc2)n(-c2ccccc2)n1 | 4.57% |
| CC(=O)c1ccc(S(=O)(=O)N2CCN(CC(=O)Nc3ccccc3C(=O)NC3CC3)CC2)cc1 | -75.4% |
| COc1ccc(C(=O)NCCn2nc(C)cc2C)cc1OC1CCN(C(C)=O)CC1 | 25.7% |
| CCCN(CCC)CC(=O)N1CC(=O)Nc2ccccc21 | 8.18% |
| Nc1nnc(SCCCOc2ccc(F)cc2)s1 | 10.9% |
| Nn1c(SCC(=O)N2CCN(S(=O)(=O)c3ccc(Cl)cc3)CC2)nnc1-c1cccs1 | -52.1% |
| Cn1cccc1C(=O)NCC(c1ccco1)N1CCCCC1 (stereo not shown) | -16.2% |

| SMILES | hERG current change (%, negative = inhibition) at 10uM |
| --- | --- |
| COc1ccc(S(=O)(=O)N(CC(=O)O)c2ccc(C)cc2)cc1 | 4% |
| CCCCCOc1ccc(C2C(C(C)=O)=C(C)Nc3ncnn32)cc1OC (stereo not shown) | -2.28% |
| CC(=O)c1cc2c(cc1NC(=O)CCCC(=O)O)OCO2 | 10.6% |
| COc1cc(-c2nnc(SCC(=O)NC3CCCC3)n2C)cc(OC)c1O | 35.2% |
| CC(C)NS(=O)(=O)c1ccc(CCC(=O)Nc2ccc3c(c2)OCCO3)cc1 | -1% |
| O=C(O)CCNS(=O)(=O)c1ccc2c(c1)Cc1ccccc1-2 | 4.88% |
| CC(=O)c1cccc(NC(=O)N2CCCC2C(=O)NCc2ccc(C)cc2)c1 (stereo not shown) | -36.7% |
| COc1ccc(CSc2nncn2N)cc1Br | 4.98% |
| O=C(N/N=C/c1ccccc1OCC(=O)N1CCCC1)C(=O)Nc1ccccc1F | -11.9% |
| CN(C)S(=O)(=O)c1ccc(C(=O)Nc2nnc(SCC(=O)NCC3CCCO3)s2)cc1 (stereo not shown) | 12.2% |
| CCC(CC)NC(=O)Nc1cccc(C)c1C | -17% |
| CCc1nc2sc3c(c2c(=O)n1CCO)CCC3 | 14.1% |
| CCN1CCN(C(=O)c2cc(COc3c(C)cccc3C)on2)CC1 | -32.3% |
| Cc1nn(CC(=O)Nc2ccc3c(c2)nc(CN2CCCCC2)n3C)c(=O)c2ccccc12 | -4.03% |
| CN(C)P1(N(C)C)=NC(C(F)(F)F)=NC(C(F)(F)F)=N1 | 17.5% |
| CNS(=O)(=O)c1cc(-c2nnc(N3CCOCC3)c3ccccc23)ccc1C | -17.1% |
| O=C(Nc1cccnc1)Nc1ccc(Br)cc1Cl | -0.533% |
| O=C(Cc1ccc(F)cc1)NC1CCSC1=O (stereo not shown) | 17.1% |
| CCn1c(SCC(=O)Nc2ccccc2OC)nc2ccccc2c1=O | -11.9% |
| COC(=O)c1sc2nc3c(c(-c4cccs4)c2c1N)CCCC3 | 9.57% |
| Cc1cc(C)c(C)c(OCC(=O)N2CCN(c3ccccn3)CC2)c1 | -33.6% |
| CN(C)c1ncc(S(=O)(=O)c2ccccc2)c(-c2ccccc2Cl)n1 | -20.2% |

| SMILES | hERG current change (%, negative = inhibition) at 10uM |
| --- | --- |
| CCn1nc(C)cc1-c1n[nH]c(=S)n1N | 23.1% |
| O=C(COc1ccc2c(c1)OCO2)Nc1nccs1 | 18.7% |
| Cc1c(NC(=O)C(C)OC(=O)c2cccnc2)c(=O)n(-c2ccccc2)n1C (stereo not shown) | 14.4% |
| N/C(=N\OC(=O)/C=C/c1ccccc1Cl)c1ccncc1 | -28.5% |
| CCn1c(C(=O)O)c(CC(=O)NC2CCCCCC2)c2ccccc21 | 16.2% |
| CSCc1c(C(=O)N2CCCc3ccccc32)oc2ccccc12 | 1.15% |
| CCOCCCNC(=O)C1CCN(S(=O)(=O)c2cc(Br)cc3c2N(C(=O)CC)CC3)CC1 | -1.16% |
| O=C1CCC(C(=O)N2CCCCCC2)CN1Cc1cccc(C(F)(F)F)c1 (stereo not shown) | -15% |
| COc1ccc(C(=O)CSc2nnc(Cn3nnc4ccccc43)n2C)cc1 | -13.7% |
| Cc1ccc(-n2c(CCC(=O)O)ccc2-c2cccs2)cc1C | 3.25% |
| C/C=C\C=C/C(=O)Nc1cccc(C2=NOC3(C2)C[C@@H](C(N)=O)N(C(=O)/C=C/C=C\C)C3)c1 (stereo partly shown) | 12.7% |
| COc1ccc(NC(=O)Cn2c(=O)n(Cc3ccco3)c(=O)c3ccccc32)cc1 | -1.15% |
| COc1cc(NC(=O)Cc2ccc(F)cc2)cc(OC)c1OC | 16.2% |
| CCn1cc(CN2CCC(n3nccc3NC(=O)CCCc3ccccc3)CC2)cn1 | -27.3% |
| O=c1nc2s/c(=C\c3ccco3)c(=O)n2nc1Cc1ccccc1 | 21.3% |
| CCn1c(C)nc2cc(-c3nc4n(n3)Cc3ccccc3-4)ccc21 | -0.0124% |
| Cl.O=C(CCN1CCN(CCO)CC1)N1c2ccccc2Sc2ccc(C(F)(F)F)cc21 | -12% |
| CSCc1nnc2n1-c1ccc(Cl)cc1C(c1ccccc1)=NC2 | -17% |
| CC1CN(C(=O)c2cc3ccccc3cc2O)CC(C)O1 (stereo not shown) | 0.614% |
| CCS(=O)(=O)N1CCC(C(=O)Nc2cc([N+](=O)[O-])ccc2C)CC1 | 2.39% |
| CC(C)c1ccc(NC(=O)[C@H]2CSCN2C(=O)[C@@H]2CCC(=O)N2)cc1 | -1.7% |
| CCN(CC)S(=O)(=O)c1ccc(-n2cnc3cc(C)c(C)cc32)nc1 | 14.4% |

| SMILES | hERG current change (%, negative = inhibition) at 10uM |
| --- | --- |
| O=C(NC1CCCCC1)C(c1cccs1)N(C(=O)C(F)(F)F)c1ccccc1 (stereo not shown) | 1.61% |
| O=C(Nc1ccc(Cl)c(S(=O)(=O)N2CCOCC2)c1)c1ccccn1 | -0.348% |
| COc1ccc(C(=O)/C=C/c2ccc(OC)c(O)c2)c(F)c1 | -13.5% |
| O=C(Nc1ccc(F)cc1)C1CCN(c2nnnn2-c2ccccc2)CC1 | -46.2% |
| COc1ccc(N2C(=O)CCC(C(=O)NCc3ccccn3)C2c2ccc(OC)c(OC)c2)cc1 (stereo not shown) | -14.5% |
| CCN(CC)CCNC(=O)C(C(=O)c1ccccc1)n1ccccc1=O (stereo not shown) | -6.06% |
| COc1cc(C2C3C(=O)N(Cc4ccccc4)C(=O)C3ON2c2ccccc2)cc(OC)c1O (stereo not shown) | -17% |
| CCc1ccc2oc(-c3cccc(N)c3)nc2c1 | 6.25% |
| Cc1ccccc1N1CC(c2nc3ccccc3[nH]2)CC1=O (stereo not shown) | 12.5% |
| Cc1ccccc1NS(=O)(=O)c1cc(C(=O)N2CCc3ccccc3C2)ccc1C | 6.67% |
| COc1ccccc1C(O)P(=O)(OC(C)C)c1ccc(N(C)C)cc1 (stereo not shown) | -10.6% |
| Cc1csc(NC(C)c2nc3cc(C(F)(F)F)ccc3n2CCOCCO)n1 (stereo not shown) | -38.8% |
| COc1cc(NC(=O)[C@H]2CCCN2S(=O)(=O)c2cccc3cccnc23)cc(OC)c1OC | 0.0494% |
| CNC(=O)CSc1nnc(NC(=O)C2CC(=O)N(c3ccccc3OC)C2)s1 (stereo not shown) | 16.4% |
| C#CCOc1ccc(/C=C2/C(=O)ON=C2C)cc1OCC | 20.1% |
| CCOc1ccc(C(=O)NCC(=O)OCC(=O)Nc2ccc(C)c(S(=O)(=O)N(C)C)c2)cc1 | -30% |
| CC(=O)C1=C(O)C(=O)N(c2ccc(Br)cn2)C1c1cccc([N+](=O)[O-])c1 (stereo not shown) | 16.3% |
| CC(C)(C)c1ccc(CN2N=C(/C=C/c3ccccc3)CCC2=O)cc1 | 19.2% |
| CC(C(=O)c1ccc(Br)cc1)[n+]1cccc(NC(=O)c2ccccc2)c1 (stereo not shown) | -38.2% |
| C=CCN1C(=S)N[C@@H]2CS(=O)(=O)C[C@@H]21 | -6.08% |
| CC(=O)c1ccc(S(=O)(=O)N2CCN(C(=O)C3CCCC3)CC2)cc1 | 2.11% |
| COc1ccc(NC(=O)NNC(=O)C(O)(c2ccccc2)c2ccccc2)cc1 | -9.41% |

Source: paper PMC4336329 (PLoS ONE, 2015)
